From patent US20100092429A1, “Composition” (Danisco A/S, priority 2006, published 2010)
Like-named read-outs stand apart in the source and are kept apart here.

What was measured:
Eub. biforme = conditions: Table 10 second experiment, 24 h, 1 w/v-% carbohydrate
Experimental: (§1) The prebiotics were dissolved in 10% concentrated stock solutions, sterilized either by filtration (0.2 μm Minisart NML, Sartorius AG, Germany) or by UV-radiation (30 s, 120 mJ/cm^2) (XL-1500 UV Crosslinker, Spectronics Corporation, US) depending on the length of the carbohydrate chains and stored at +4° C. in aerobic conditions. The tested bacterial strains and their growth media used in the cultivation (the medium in parentheses is the medium used in the first pre-cultivation) are shown in Table 2. Bifidobacteria, lactobacilli, and Strep. thermophilus were grown in MRS medium and other bacteria in TSB.
(§2) All cultures were stored at −70° C. in bead vials (Technical Service Consultants, UK). For the subcultures, bacteria were inoculated from two beads to 5 ml of their appropriate growth medium (Table 2). The precultures were grown from frozen stocks for 24-48 h at 37° C. under anaerobic conditions in appropriate media, until they were dim. Then the bacteria were inoculated further to MRS or TSB (Table 2) and incubated for another 24 h at 37° C. These suspensions were used for growth intensity measurements
(§3) Anaerobic growth was measured with an automatic on-line turbidometer (Bioscreen C, Labsystems, Finland), which records kinetic changes in the absorbance of the liquid samples in a multiwell plate. Each well of the plate was filled with 20 μl 10 w/v-% prebiotic solution in aerobic conditions, subsequently 180 μl 1 v/v-% early stationary phase test bacteria in its appropriate culture medium were added anaerobically. The control wells included only 200 μl 1 v/v-% early stationary phase test bacteria or the same medium used for culturing the bacteria in question. The final prebiotic concentration was 1 w/v-%.
(§4) All strains were incubated at 37° C. for 24 h and the absorbance (OD 600 nm) was measured every 30 min. Plates were shaken for 10 s before every measurement. Two different sets of experiments with five replicates were performed for each strain and carbohydrate combination.
(§5) The rate of bacterial growth on a single carbohydrate source was determined by calculating the area under the growth curve (24 h) from the absorbance results automatically processed by the software (BioLink, Version 5.07, Labsystems, UK). The similar analysis was performed by Jaskari et al. Appl. Microbiol. Biotechnol. 49 (1998) 175-181. The area under the growth curve was calculated for each well with the help of symmetric rectangles, which were drawn from absorbance values measured at a consecutive time points. This is illustrated in the FIG. 1.
(§6) All the areas from the measurement period (24 h, measurement in every 30 min) were summed up to get the area under the growth curve for the each well's growth curves. The growth in the control medium (basal growth medium without added carbohydrates) was subtracted from results as baseline growth (abs0). The variation between the parallel results of the each bacteria and prebiotic combination was calculated using the standard error of the mean (SE). The averages of the areas under the growth curve for ten parallel wells were used to calculate the SE as following: […]

B. longum DSM 20019 = conditions: Table 6 further experiment, 24 h, 1 w/v-% carbohydrate
Experimental: as §1, §2, §3, §4, §5, §6

Strep. thermophilus = conditions: 24 h, 1 w/v-% carbohydrate
Experimental: as §1, §2, §3, §4, §5, §6

L. bulgaricus = conditions: 24 h, 1 w/v-% carbohydrate
Experimental: as §1, §2, §3, §4, §5, §6

[1] = system: Bifidobacterium longum KC-1; conditions: 24 h, 1 w/v-% carbohydrate
Experimental: as §1, §2, §3, §4, §5, §6

Staph. aureus = conditions: 24 h, 1 w/v-% carbohydrate
Experimental: as §1, §2, §3, §4, §5, §6

[2] = system: Bifidobacterium lactis HN019 (Howaru); conditions: 24 h, 1 w/v-% carbohydrate
Experimental: as §1, §2, §3, §4, §5, §6

[3] = system: B. adolescentis DSM 20083; conditions: Table 6 further experiment, 24 h, 1 w/v-% carbohydrate
Experimental: as §1, §2, §3, §4, §5, §6

[4] = system: Bifidobacterium lactis BI-07; conditions: 24 h, 1 w/v-% carbohydrate
Experimental: as §1, §2, §3, §4, §5, §6

B. breve Bb-03 = conditions: Table 6 further experiment, 24 h, 1 w/v-% carbohydrate
Experimental: as §1, §2, §3, §4, §5, §6

[5] = system: Bifidobacterium lactis DN 173 010; conditions: 24 h, 1 w/v-% carbohydrate
Experimental: as §1, §2, §3, §4, §5, §6

L. acidophilus NCFM 145 = conditions: 24 h, 1 w/v-% carbohydrate
Experimental: as §1, §2, §3, §4, §5, §6

B. infantis DSM 20088 = conditions: Table 6 further experiment, 24 h, 1 w/v-% carbohydrate
Experimental: as §1, §2, §3, §4, §5, §6

Eub. limosum = conditions: 24 h, 1 w/v-% carbohydrate
Experimental: as §1, §2, §3, §4, §5, §6

E. coli O1:57 = conditions: 24 h, 1 w/v-% carbohydrate
Experimental: as §1, §2, §3, §4, §5, §6

[6] = system: Bifidobacterium lactis Bb-12; conditions: 24 h, 1 w/v-% carbohydrate
Experimental: as §1, §2, §3, §4, §5, §6

L. rhamnosus HN001 = conditions: 24 h, 1 w/v-% carbohydrate
Experimental: as §1, §2, §3, §4, §5, §6

L. paracasei Lpc-37 = conditions: 24 h, 1 w/v-% carbohydrate
Experimental: as §1, §2, §3, §4, §5, §6

bifidum BB-02 = conditions: Table 5, 24 h, 1 w/v-% carbohydrate
Experimental: as §1, §2, §3, §4, §5, §6

Bact. vulgatus = conditions: Table 10 second experiment, 24 h, 1 w/v-% carbohydrate
Experimental: as §1, §2, §3, §4, §5, §6

Staph. epidermis = conditions: 24 h, 1 w/v-% carbohydrate
Experimental: as §1, §2, §3, §4, §5, §6

Salm. typhimurium = conditions: 24 h, 1 w/v-% carbohydrate
Experimental: as §1, §2, §3, §4, §5, §6

Bact. fragilis = conditions: Table 10 second experiment, 24 h, 1 w/v-% carbohydrate
Experimental: as §1, §2, §3, §4, §5, §6

[7] = system: Bifidobacterium lactis BI-04; conditions: 24 h, 1 w/v-% carbohydrate
Experimental: as §1, §2, §3, §4, §5, §6

[8] = system: Bifidobacterium lactis 420; conditions: 24 h, 1 w/v-% carbohydrate
Experimental: as §1, §2, §3, §4, §5, §6

[9] = system: Bifidobacterium longum 913; conditions: 24 h, 1 w/v-% carbohydrate
Experimental: as §1, §2, §3, §4, §5, §6

OC[C@H]1O[C@H](O)[C@H](O)[C@@H](O)[C@@H]1O [Glucose, Alpha-D-Glucose]
average area under the growth curve without medium (Eub. biforme): 235
average area under the growth curve without medium (B. longum DSM 20019): 1143
average area under the growth curve without medium (Strep. thermophilus; Table 7 first experiment, S. thermophilus): 425
average area under the growth curve without medium (Strep. thermophilus; Table 8 second experiment, Strep. thermophilus): 1066
average area under the growth curve without medium (L. bulgaricus; Table 7 first experiment): 716
average area under the growth curve without medium (L. bulgaricus; Table 8 second experiment): 909
average area under the growth curve without medium ([1]; Table 5, longum KC-1): 553
average area under the growth curve without medium ([1]; Table 6 further experiment, B. longum KC-1): 1194
average area under the growth curve without medium (Staph. aureus; Table 9 first experiment, S. aureus): 500
average area under the growth curve without medium (Staph. aureus; Table 10 second experiment, Staph. aureus): 247
average area under the growth curve without medium ([2]; Table 5, lactis Howaru): 978
average area under the growth curve without medium ([2]; Table 6 further experiment, B. lactis HN019): 1062
average area under the growth curve without medium [3]: 1028
average area under the growth curve without medium ([4]; Table 5, lactis BI-07): 933
average area under the growth curve without medium ([4]; Table 6 further experiment, B. lactis BI-07): 1072
average area under the growth curve without medium (B. breve Bb-03): 561
average area under the growth curve without medium ([5]; Table 5, lactis Danone): 397
average area under the growth curve without medium ([5]; Table 6 further experiment, B. lactis DN173010): 772
average area under the growth curve without medium (L. acidophilus NCFM 145; Table 7 first experiment, L. acidophilus): 1305
average area under the growth curve without medium (L. acidophilus NCFM 145; Table 8 second experiment, L. acidophilus NCFM 145): 1099
average area under the growth curve without medium (B. infantis DSM 20088): 800
average area under the growth curve without medium (Eub. limosum; Table 9 first experiment, E. limosum): 131
average area under the growth curve without medium (Eub. limosum; Table 10 second experiment, Eub. limosum): 677
average area under the growth curve without medium (E. coli O1:57; Table 9 first experiment, E. coli O1:57): 701
average area under the growth curve without medium (E. coli O1:57; Table 10 second experiment, E. coli): 769
average area under the growth curve without medium ([6]; Table 5, lactis Bb-12): 495
average area under the growth curve without medium ([6]; Table 6 further experiment, B. lactis Bb-12): 838
average area under the growth curve without medium (L. rhamnosus HN001; Table 7 first experiment, L. rhamnosus): 948
average area under the growth curve without medium (L. rhamnosus HN001; Table 8 second experiment, L. rhamnosus HN001): 1041
average area under the growth curve without medium (L. paracasei Lpc-37; Table 7 first experiment, L. paracasei): 761
average area under the growth curve without medium (L. paracasei Lpc-37; Table 8 second experiment, L. paracasei Lpc-37): 877
average area under the growth curve without medium (bifidum BB-02): 512
average area under the growth curve without medium (Bact. vulgatus): 410
average area under the growth curve without medium (Staph. epidermis; Table 9 first experiment, S. epidermis): 497
average area under the growth curve without medium (Staph. epidermis; Table 10 second experiment, Staph. epidermis): 594
average area under the growth curve without medium (Salm. typhimurium; Table 9 first experiment, S. typhimurium): 819
average area under the growth curve without medium (Salm. typhimurium; Table 10 second experiment, Salm. typhimurium): 744
average area under the growth curve without medium (Bact. fragilis): 226
average area under the growth curve without medium ([7]; Table 5, lactis BI-04): 629
average area under the growth curve without medium ([7]; Table 6 further experiment, B. lactis BI-04): 951
average area under the growth curve without medium ([8]; Table 5, lactis 420): 836
average area under the growth curve without medium ([8]; Table 6 further experiment, B. lactis 420): 994
average area under the growth curve without medium ([9]; Table 5, longum 913): 443
average area under the growth curve without medium ([9]; Table 6 further experiment, B. longum 913): 1317
